Out of some 370,000 compounds screened, about 150 (0.041%) were called active. This list was built around the results that the source calls inconclusive (neither active nor inactive); the mix of calls is not that of the screen. Calls follow the shape of the dose curve; as a rule, active = well fitted inhibition curve with a large enough effect; inconclusive = small, poorly fitted or top-dose-only effect; inactive = flat fitted curve, though single readings scatter. No potency is given beside an inconclusive call; the fits are too rough.
biological target: Beta-lactamase (Escherichia coli (strain K12)) (UniProt P00811); test: qHTS Inhibitors of AmpC Beta-Lactamase (assay with detergent); settings: AmpC hydrolysis of nitrocefin, absorbance 480 nm, 0.01% Triton; series mostly up to 114 µM; also: nearly all actives have a fitted effect of over 25% in size
Sequence of UniProt P00811 (P00811 whole entry, looked up): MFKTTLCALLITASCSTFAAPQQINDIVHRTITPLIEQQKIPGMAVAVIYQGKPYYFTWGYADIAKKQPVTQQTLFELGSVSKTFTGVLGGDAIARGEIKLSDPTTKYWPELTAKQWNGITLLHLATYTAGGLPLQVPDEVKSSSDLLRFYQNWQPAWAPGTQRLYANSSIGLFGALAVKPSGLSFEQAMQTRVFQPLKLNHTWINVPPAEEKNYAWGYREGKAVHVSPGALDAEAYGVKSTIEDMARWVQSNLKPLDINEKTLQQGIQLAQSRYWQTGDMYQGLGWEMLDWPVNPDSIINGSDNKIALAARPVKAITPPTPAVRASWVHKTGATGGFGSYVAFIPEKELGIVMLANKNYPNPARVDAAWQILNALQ
Outline: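 20 mM phosphate pH 7.0 + 0.01% (detergent screen) or 0.0001% Triton X-100; 5.3 nM AmpC reagent; cpd preinc 15 min RT; nitrocefin (800 uM stock) to start; A480 q20 s × 4 min; Activity was normalised to no-enzyme and no-compound control wells.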
Potency is read from the fitted curve at half-maximal effect; tags tell the direction and shape of the fitted curve.

| Compound | Potency |
| --- | --- |
| COc1ccc(-c2nnc3ccc(SCC(=O)N4CCOCC4)nn23)cc1 | inconclusive [inhibitor, full curve, poor fit] |
| COc1ccc(S(=O)(=O)N2Cc3ccccc3CC2C(=O)N2CCOCC2)cc1 (stereo unspecified) | inconclusive [inhibitor, partial curve] |
| COC(=O)NNC(=O)c1ccc(C(C)(C)C)cc1 | inactive |
| CC1CCCC(C)N1C(=O)COC(=O)c1nn(C)c(=O)c2ccccc12 (stereo unspecified) | inconclusive [inhibitor, full curve, poor fit] |
| Cc1ccc(C(=O)NNC(=O)c2n[nH]c(=O)c3ccccc23)cc1C | inconclusive [inhibitor, single point] |
| CCOc1ccc(C(C)=O)cc1COC(=O)CN1C(=O)NC2(CCCC2)C1=O | inconclusive [inhibitor, full curve, poor fit] |
| COc1ccc2c(c1)N(C)C(=O)CC(c1ccccc1)=N2 | inconclusive [inhibitor, full curve, poor fit] |
| CC(OC(=O)Cc1c(F)cccc1Cl)C(=O)NC1(C#N)CCCCC1 (stereo unspecified) | inconclusive [inhibitor, partial curve, poor fit] |
| CC(=O)Nc1ccc(C2Nc3c(C)cc(C)cc3-c3cc(C)nn32)cc1 (stereo unspecified) | inactive |
| O=[N+]([O-])c1ccc(OCC(O)CN2CCN(c3ccccc3F)CC2)cc1 (stereo unspecified) | inconclusive [inhibitor, full curve] |
| COc1ccc(C(CNC(=O)COc2cccc(C(F)(F)F)c2)N2CCCC2)cc1 (stereo unspecified) | inconclusive [inhibitor, full curve, poor fit] |
| COC(=O)CC1Oc2ccccc2N(Cc2ccccc2)C1=O (stereo unspecified) | inconclusive [inhibitor, full curve] |
| Cc1ccc(S(=O)(=O)N2CCC(C(=O)NCC3CC3)CC2)cc1 | inconclusive [inhibitor, partial curve] |
| CCOc1ccc(-n2nc3cc(C)c(N)cc3n2)cc1 | inconclusive [inhibitor, partial curve, poor fit] |
| CCOC(=O)c1c(C)c(C(=O)NC(C)COC)c(C)n1C (stereo unspecified) | inconclusive [inhibitor, partial curve] |
| COc1ccc(-c2cc(=O)oc3cc(OC(C)C(=O)NCC4CCC(C(=O)O)CC4)ccc23)cc1 (stereo unspecified) | inconclusive [inhibitor, single point] |
| Cc1ccc(S(=O)(=O)N2CCC(c3ccncc3)CC2)c(C)c1 | inactive |
| Cc1nn(S(=O)(=O)c2cccs2)c(C)c1Sc1ccccc1 | inconclusive [inhibitor, full curve, poor fit] |
| CN(C)c1ccc(/C=N/NC(=O)c2sccc2-n2cccc2)cc1 | inconclusive [inhibitor, full curve, poor fit] |
| COc1ccccc1NC(=O)c1ccccc1C(=O)Nc1ccccc1OC | inconclusive [inhibitor, partial curve, poor fit] |
| COc1cccc(-c2nc(CS(=O)CC(=O)NC3CCCC3)c(C)o2)c1 (stereo unspecified) | inconclusive [inhibitor, full curve] |

| Compound | Potency |
| --- | --- |
| CCS(=O)(=O)Nc1cc2c3c(c1)CCC(=O)N3CCC2 | inactive |
| COc1ccc(N2CCN(C(=O)COC(=O)CNC(=O)c3ccc(C)cc3)CC2)cc1 | inconclusive [inhibitor, full curve, poor fit] |
| CCCCOC(=O)CSc1nc(N)c(C#N)c(-c2ccc(OC)cc2)c1C#N | inconclusive [inhibitor, full curve, poor fit] |
| COc1cccc2cc3c(=O)oc4ccccc4c3nc12 | inconclusive [inhibitor, full curve, poor fit] |
| CC(C)(C)c1cc(=O)n2c(C#N)c(C#N)nc2[nH]1 | inconclusive [inhibitor, full curve] |
| CC(=O)Nc1ccc(NC(=O)C(C)OC(=O)CCc2nc3ccccc3s2)cc1 (stereo unspecified) | inconclusive [inhibitor, single point] |
| Cc1c(C(=O)N/N=C/c2ccc(-c3ccccc3[N+](=O)[O-])o2)sc(N)c1C#N | inactive |
| CN(CCCC(=O)Nc1ccc(OC(F)F)cc1)S(=O)(=O)c1ccc(F)cc1 | inactive |
| COCCNC(=O)C1CC(c2ccc([N+](=O)[O-])cc2)=NO1 (stereo unspecified) | inconclusive [inhibitor, single point] |
| CCN(CC(=O)Nc1c(F)cccc1F)C(=O)CCN1C(=O)C2CCCCC2C1=O (stereo unspecified) | inconclusive [inhibitor, partial curve] |
| CCOc1ccc(C(C)=O)cc1COC(=O)c1cc([N+](=O)[O-])ccc1N1CCOCC1 | inactive |
| O=C(NCCc1ccccc1)C(=O)NCC1CCCN1S(=O)(=O)c1cccs1 (stereo unspecified) | inconclusive [inhibitor, partial curve, poor fit] |
| Fc1ccc(CSc2ncnc3nc[nH]c23)cc1 | inconclusive [inhibitor, full curve] |
| O=C1C2CC=C(Cl)CC2C(=O)N1CC1Cc2ccccc2CO1 (stereo unspecified) | inactive |
| Cc1c(-c2nsc(NC(=O)c3cccs3)n2)nnn1-c1ccc(Br)cc1 | inactive |
| OCC[C@@H]1C[C@@H](O)[C@H](O)[C@@]2(OCCc3ccccc32)O1 | inconclusive [inhibitor, partial curve, poor fit] |
| Cc1cc(NC(=O)CSc2nc3sc4c(c3c(=O)n2C)CCCC4)no1 | inconclusive [inhibitor, partial curve, poor fit] |
| Cc1ccc(/C=C2\SC(=S)N(CCCC(=O)Nc3ccccn3)C2=O)cc1 | inconclusive [inhibitor, full curve, poor fit] |
| CN1C(=O)C(CC(N)=O)N(NC(=O)c2ccc(Cl)cc2)C1=S (stereo unspecified) | inconclusive [inhibitor, full curve, poor fit] |
| CCC(=O)N1CCc2cc(Br)cc(S(=O)(=O)NCCN3CCCCC3C)c21 (stereo unspecified) | inconclusive [inhibitor, full curve, poor fit] |
